# Data taken from the supplement of paper PMC11417369.
# ± gives the standard deviation of the averaged measurements. The list shows a part of the results.
# System: PfAP2-LT AP2 domain (GST-tagged)
# Assay: gcPBM binding intensity (ln(normalized median fluorescence intensity)); higher = stronger DNA binding
# Method in brief: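 The highest Masliner-normalised natural-log median intensity across replicate spots of either probe orientation is reported as binding intensity. GST-tagged P. falciparum DNA-binding domains expressed in E. coli were applied for 1 h to an Agilent 4 × 180k array of primer-extended double-stranded 36-bp intergenic genomic probes plus negative controls, and bound protein was detected with Alexa488 anti-GST antibody and scanned at 488 nm.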
row,Sequence,gcPBM binding intensity (ln)
1,TTTTTTAAAGCCTGTTCATCATCCTTACCTATCAAC [GTGCAC_negctrl_site452],8.68 ± 0.52
2,AAAGTATACAATGACGCATGCATATATATATACATA [TGCATGCA_site429],9.31 ± 0.26
3,ATTTATTTATCTAGCTATTCACCATTTTCTTTTGTT [CACACA_negctrl_site1259],9.03 ± 0.47
4,ATAGGATGTTTGCACTGTACCAAAAAATGAGCTGCA [XGTACX_site2825],8.77 ± 0.42
5,ACTTTTTTGAACAACGTGCACGTATTCATAACAAAA,8.6 ± 0.34
6,ATCAGATATATATATTGTACATTTATATATAAATCA [XGTACX_site1960],8.62 ± 0.46
7,CTATAATAGAAGTGTACACACATATTTATGTCTGTA [CACACA_site7462],9.02 ± 0.45
8,TTTTCTTTATTATAATGTACTCACAAATAAATATAA [XGTACX_site7298],8.23 ± 0.45
9,TTTCATTTTAGAAGTACACACAAAAAATAAAATAAT [CACACA_site2141],8.79 ± 0.4
10,AATATCACATTCCACGGTACACACTAAAAGAAAAAT [XGTACX_site7653],9.12 ± 0.43
11,ATAAATACGATTAATTAGGTTTGTATAAATTAAATT [GTGCAC_negctrl_site635],8.55 ± 0.46
12,TCATGTAGTAAAAACTGTACAAATTATTTATCATGT [XGTACX_site1727],8.71 ± 0.39
13,ATAACTTTTGCGCGTACACACATTTATCCTCTTTAT [CACACA_site209],9.62 ± 0.33
14,CTTAAAAACAAAAATGCACACATAATAAGCATATGT [CACACA_site9149],9.04 ± 0.4
15,ATTAAACTCATTAAGAGTACAGATAACATTAAAGTA [XGTACX_site8697],8.72 ± 0.49
16,TGAAATTAGATATATACACACATATAGATTTATATG [CACACA_site7619],8.88 ± 0.36
17,GATGGGCAAATTTACTGTACTTTTATAATATTTTTT [XGTACX_site4830],8.85 ± 0.43
18,TATAATGGTAAAAACACACAAATATGAAGATGTTAA [CACACA_site6479],8.89 ± 0.41
19,AAAATTGTGAAAGGGAAGATGATCAAATTGTTAAGG [CACACA_negctrl_site1492],8.8 ± 0.66
20,GTACCTATAAATATTACACACATTTTCATTTTTAAC [CACACA_site7022],9.11 ± 0.35
21,AAAAAAAATTATATTTGTACGCATTAAAAAATCTAA [XGTACX_site1616],8.39 ± 0.33
22,CTTTTTCTTTTCCGGCGTACAGACTTAGTAGTAGAT [XGTACX_site2268],8.72 ± 0.36
23,TACTTCATTCATTTTACACACATATAAACCCTTTTA [CACACA_site3229],9.15 ± 0.47

row,Sequence,gcPBM binding intensity (ln)
1,TAAAATATAGGAAATACATGCATATTAAATATTCCT [TGCATGCA_site1057],8.73 ± 0.38
2,TACATGCAAAAAATTCCACACACACCCCCACATATA [CACACA_site8329],10.1 ± 0.27
3,TATATAGCTAAAAACACACAAATATGTACACATAAA [CACACA_site7665],9.09 ± 0.4
4,ACTAATACATAAAAAAGTACAAATATGAGTATTAAC [XGTACX_site7281],9.03 ± 0.47
5,AATATTCAATATAAAGTGCATTATTGTGGACCTAAT,8.85 ± 0.42
6,AAATATACATACATATGTACATATATATATATATAT [XGTACX_site8202],9.57 ± 0.14
7,ACAATAAAGAACAGTATGCACTTTTATGCATGCGTA,8.79 ± 0.39
8,ATAGTTAAAAAAAAAAAAAAAAAAAAAAGAGAGAGA [CACACA_negctrl_site1307],8.53 ± 0.54
9,GGGTATACCAATATAACACACATATATATATAATAT [CACACA_site450],9.26 ± 0.42
10,ATAAGCATACATATTACACACATATAACATCTATAT [CACACA_site7219],9.21 ± 0.37
11,AAATTATTAAAAAAGTGTACATATTTTTATAATACC [XGTACX_site5610],8.56 ± 0.4
12,TTAATCAAATTACTATGTACATAAAACATATAAGAA [XGTACX_site381],8.73 ± 0.43
13,TATTTTTTTTCAAAAAAGTTTATTTAGAACTAAATA [XGTACX_negctrl_site487],7.86 ± 0.4
14,AAAAAAAAAAAAAGTACACACATACAGATAAATATA [CACACA_site5067],9.16 ± 0.48
15,ATAAATTGATTCAACACACACATATGTAGGAAGTTA [CACACA_site3253],9.2 ± 0.42
16,TTTTTTAAATTGGTAGTGCAATATGATTGAACAAAA [GTGCAC_site9715],8.29 ± 0.28
17,AATATATCTTATTTAACACACACAAAGAAAATAGAA [CACACA_site9242],9.19 ± 0.38
18,TGTTATCAGAAAGCACGTACATATAATTATATATTC [XGTACX_site4188],8.83 ± 0.41
19,AATACAATAAAAAAAAGTACACATGTATAAAAAATT [XGTACX_site8270],9.46 ± 0.64
20,TATATATATATACATACATGCATATATATATATATA [TGCATGCA_site513],9.45 ± 0.3
21,GAATATGTAAAGAAAGGTACACATGAAAATATGTGT [XGTACX_site446],8.94 ± 0.45
22,ATGAATTAATCTAATCGTACAATAAGCATTATTATA [XGTACX_site2571],8.57 ± 0.38
23,TGTACCTACAAAATATGATATATTTTTATAAATTGT [XGTACX_negctrl_site498],8.51 ± 0.47

row,Sequence,gcPBM binding intensity (ln)
1,TAGAAAATCAGTTAAACACACACATAAAAAAAAAAA [CACACA_site8933],9.23 ± 0.49
2,TATATAATATATATATGTACACATTTGCAAACAATG [XGTACX_site6941],8.82 ± 0.34
3,TTCTTATTTGTACTAGTGCAATAGAAAATAAATAAA [GTGCAC_site9731],8.33 ± 0.37
4,ATTTTTTTTTTTTATAGTGGATCCACATTTGCCATT [CACACA_negctrl_site1284],8.93 ± 0.57
5,ATATATTTTAATTGTTGTACATATTAAATAAATAGG [XGTACX_site2311],8.53 ± 0.41
6,TATATTTTATATATGGTGCAACTTTTATTTAAATAA,8.3 ± 0.46
7,ACATAAATATAAACGTGTACATATATAAATATATAT [XGTACX_site7293],9.06 ± 0.4
8,CATATATAAAAAAACACACACATATATATATATATA [CACACA_site1195],9.82 ± 0.042
9,AAGAAAGACATTACGTGTACCAAACAACCTACCAAC [XGTACX_site4219],9.35 ± 0.4
10,AAAATTAAACTCACACCACACACAAAAAAAAAAAAA [CACACA_site8131],9.35 ± 0.49
11,TGTTTTATCTTATATGCACACGATAAAAAAAAAAAA [CACACA_site2674],8.63 ± 0.45
12,ATGTATATGTCTATATGTACTTATATTTTATTTTTT [XGTACX_site5902],8.77 ± 0.35
13,TTACAAGTAAAAGGTACACACATTATAAATACAAAT [CACACA_site4752],9.19 ± 0.45
14,CATTATTCATTTTGGATGCACTGACAGAAAAATGGT,8.69 ± 0.43
15,ATGCTCAGGAAAACATGTACAAAATTATTTGTTATA [XGTACX_site4306],8.69 ± 0.4
16,ATATGACATAAAACATGTACATGTTCATAAATATAT [XGTACX_site1923],9.06 ± 0.44
17,TGAGTACACAATAATACATGCAATTCCTATGAATAT [TGCATGCA_site851],8.97 ± 0.43
18,ATAAATATTAAAAGTACACACAGATACACTAATTAT [CACACA_site1808],9.16 ± 0.36
19,ATTTACATAATAAAATGTACATTTATAAATATTATA [XGTACX_site1901],8.6 ± 0.43
20,TACACTTTTTATGAAGTGCATGTATAGCTCTTAAAA [GTGCAC_site9595],8.37 ± 0.33
21,TGCAGTCTGGAGAAACGTACACAGTATCTGGTAACC [XGTACX_site2543],8.8 ± 0.47
22,TTTTGTGCTTAAAAAAGTACAAAATATAAAAAAAAT [XGTACX_site7876],8.56 ± 0.38
23,CCCACAGACGGACACACACACACACCGACACATATA [CACACA_site4356],10 ± 0.26

row,Sequence,gcPBM binding intensity (ln)
1,AAAATTGAACCTGACAAGGTATTTTATTATTTATTA [TGCATGCA_negctrl_site181],8.36 ± 0.48
2,TTCTATTTTAATATCTGTACATAATAAAGATCCATT [XGTACX_site1142],8.46 ± 0.49
3,AGTTTTTATAAAAATAGTACATATTTATTAATCTGT [XGTACX_site5881],8.57 ± 0.38
4,AATTTAATATAATGCACACATAAAACAAAAACAAAA [CACACA_site529],9.02 ± 0.4
5,TATTATCGTTCTCATACACACAAAATATACATACAC [CACACA_site2643],9.12 ± 0.4
6,TACGTAAATGTGTGTGTGCACGTTATATATTAATAT [GTGCAC_site9976],9.54 ± 0.24
7,CATTTTTTATTTCCTTGTACGAATAAAATATATTTA [XGTACX_site6844],8.43 ± 0.52
8,AATACACTAAACAAAAGTACAAAAATATTCTACAAA [XGTACX_site5162],8.97 ± 0.42
9,ATGGCCTCATTTGGGACACACAACATAAAATATATA [CACACA_site753],8.84 ± 0.59
10,ATAAACATATAAAAAGTGCATATTCATATATCTACT,8.82 ± 0.39
11,TGTTAATTATAAATTTGTACTTATTTTTACAAAATA [XGTACX_site6598],8.51 ± 0.49
12,AAATATATTTTATGTACACACAAAATTAAGGGATAT [CACACA_site4881],9.06 ± 0.49
13,TTATAATAATATAATACATGCATATATATTTAAATA [TGCATGCA_site903],8.53 ± 0.43
14,TCACTATAATAATTTACACACATTTTAAGAAAATGT [CACACA_site3530],9.02 ± 0.42
15,GAATATTAATTCATACGTACTTATATATAAGTATAT [XGTACX_site3707],8.7 ± 0.41
16,AAAATGAATAAAAATACACACATATCTGTTATTCTC [CACACA_site5474],8.97 ± 0.45
17,TATAAAAATGGGCACACACACACATATATATATTTA [CACACA_site1527],9.835 ± 0.05
18,AACTTAAAAAATAAATGTACATAAATATAAACATAT [XGTACX_site2987],8.88 ± 0.32
19,AAAAAAAAAAAAATCACACATAATATAGAATATGTA [CACACA_site4993],8.53 ± 0.51
20,ATATATATATATATAACACACGCAAAAAAATTAAAT [CACACA_site8395],9.32 ± 0.4
21,TATTTAAATTTTAAGTGTACATATTTATTTATATCT [XGTACX_site6545],8.61 ± 0.58
